According to the supplement of paper PMC4967469:
IC50 is the fitted dose that halves viability relative to control wells, and lower means more sensitive; fits outside the tested doses are given as limits. AUC, from the same fit, is the share of area under the viability curve across the 256-fold dose range; it is 1 without any effect and falls as sensitivity rises. A top dose marked as inferred was calculated from the reported fits.

Tests used:
Assay in all cases: Viability of human cancer cell lines after 72 h of drug (GDSC screen)
SGC0946 = compound: CC(C)N(CCCNC(=O)Nc1ccc(C(C)(C)C)cc1)C[C@H]1O[C@@H](n2cc(Br)c3c(N)ncnc32)[C@H](O)[C@@H]1O [SGC0946]; conditions: top dose 0.5 µM; top dose inferred
Protocol: (§1)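 Human cancer cell lines in 384-well plates, medium with 10% serum, drug for 72 h over a 256-fold dose range (nine 2-fold or five 4-fold steps up to the top dose). Adherent lines were fixed and stained with the nucleic acid dye Syto60, suspension lines read with resazurin; signal relative to control wells, capped at 0 and 100%. One two-parameter sigmoid per drug and line, fitted in a mixed model over all curves with the slope shared within a line.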

Bryostatin 1 = compound: CCC/C=C/C=C/C(=O)O[C@H]1/C(=C/C(=O)OC)C[C@H]2C[C@H]([C@@H](C)O)OC(=O)C[C@H](O)C[C@@H]3C[C@H](OC(C)=O)C(C)(C)[C@](O)(C[C@@H]4C/C(=C/C(=O)OC)C[C@H](/C=C/C(C)(C)[C@]1(O)O2)O4)O3 [Bryostatin 1]; conditions: top dose 0.008 µM; top dose inferred
Protocol: as §1

GW-2580 = compound: COc1ccc(COc2ccc(Cc3cnc(N)nc3N)cc2OC)cc1 [GW-2580]; conditions: top dose 20 µM; top dose inferred
Protocol: as §1

Lenalidomide = compound: Nc1cccc2c1CN(C1CCC(=O)NC1=O)C2=O [Lenalidomide]; conditions: top dose 5 µM; top dose inferred
Protocol: as §1

| Cell Line | AUC (SGC0946) | IC50 (SGC0946) [nM] | AUC (Bryostatin 1) | IC50 (Bryostatin 1) [nM] | AUC (GW-2580) | IC50 (GW-2580) [nM] | AUC (Lenalidomide) | IC50 (Lenalidomide) [nM] |
| --- | --- | --- | --- | --- | --- | --- | --- | --- |
| WM1552C (melanoma, adherent) | 0.986 | > 500 | 0.984 | > 8 | 0.986 | > 20000 | 0.988 | > 5000 |
| KM-H2 (Hodgkin lymphoma, suspension) | 0.992 | > 500 | 0.993 | > 8 | 0.993 | > 20000 | 0.986 | > 5000 |
| NCI-H1568 (lung adenocarcinoma, adherent) | 0.979 | > 500 | 0.949 | > 8 | 0.98 | > 20000 | 0.976 | > 5000 |
| HCT-15 (large intestine, adherent) | 0.985 | > 500 | 0.97 | > 8 | 0.981 | > 20000 | 0.985 | > 5000 |
| MKN45 (stomach, adherent) | 0.98 | > 500 | 0.981 | > 8 | 0.982 | > 20000 | 0.983 | > 5000 |
| WM-115 (melanoma, adherent) | 0.962 | > 500 | 0.941 | > 8 | 0.963 | > 20000 | 0.916 | > 5000 |
| RMG-I (ovary, adherent) | 0.981 | > 500 | 0.961 | > 8 | 0.978 | > 20000 | 0.976 | > 5000 |
| HN (head and neck, adherent) | 0.956 | > 500 | 0.96 | > 8 | 0.989 | > 20000 | 0.978 | > 5000 |
| H2869 (mesothelioma, adherent) | 0.978 | > 500 | 0.973 | > 8 | 0.974 | > 20000 | 0.972 | > 5000 |
| JHH-2 (liver, adherent) | 0.967 | > 500 | 0.986 | > 8 | 0.985 | > 20000 | 0.982 | > 5000 |
| OCUM-1 (stomach, adherent) | 0.978 | > 500 | 0.926 | > 8 | 0.98 | > 20000 | 0.987 | > 5000 |
| MS751 (cervix, adherent) | 0.979 | > 500 | 0.985 | > 8 | 0.99 | > 20000 | 0.99 | > 5000 |
| SF268 (glioma, adherent) | 0.982 | > 500 | 0.982 | > 8 | 0.971 | > 20000 | 0.985 | > 5000 |
| SW962 (urogenital system, adherent) | 0.976 | > 500 | 0.893 | > 8 | 0.982 | > 20000 | 0.977 | > 5000 |
| SCC-9 (head and neck, adherent) | 0.979 | > 500 | 0.964 | > 8 | 0.959 | > 20000 | 0.981 | > 5000 |
| OVISE (ovary, adherent) | 0.978 | > 500 | 0.978 | > 8 | 0.981 | > 20000 | 0.964 | > 5000 |
| RKN (ovary, adherent) | 0.98 | > 500 | 0.957 | > 8 | 0.977 | > 20000 | 0.985 | > 5000 |
| BICR78 (head and neck, adherent) | 0.98 | > 500 | 0.983 | > 8 | 0.978 | > 20000 | 0.964 | > 5000 |
| G-402 (soft tissue, adherent) | 0.975 | > 500 | 0.964 | > 8 | 0.978 | > 20000 | 0.976 | > 5000 |
| KU-19-19 (bladder, adherent) | 0.986 | > 500 | 0.986 | > 8 | 0.987 | > 20000 | 0.987 | > 5000 |
| NCI-H2009 (lung adenocarcinoma, adherent) | 0.985 | > 500 | 0.96 | > 8 | 0.982 | > 20000 | 0.978 | > 5000 |
| TE-1 (oesophagus, adherent) | 0.962 | > 500 | 0.981 | > 8 | 0.967 | > 20000 | 0.914 | > 5000 |
| YKG-1 (glioma, adherent) | 0.984 | > 500 | 0.822 | 4.77 | 0.978 | > 20000 | 0.987 | > 5000 |
| SLVL (B-cell lymphoma, suspension) | 0.984 | > 500 | 0.986 | > 8 | 0.975 | > 20000 | 0.98 | > 5000 |
| EFM-19 (breast, adherent) | 0.967 | > 500 | 0.851 | > 8 | 0.968 | > 20000 | 0.977 | > 5000 |
| H2369 (mesothelioma, adherent) | 0.982 | > 500 | 0.983 | > 8 | 0.982 | > 20000 | 0.984 | > 5000 |
| NCI-H1092 (small cell lung carcinoma, suspension) | 0.983 | > 500 | 0.99 | > 8 | 0.967 | > 20000 | 0.99 | > 5000 |
| KARPAS-45 (lymphoblastic leukaemia, suspension) | 0.991 | > 500 | 0.939 | > 8 | 0.989 | > 20000 | 0.987 | > 5000 |
| HuP-T3 (pancreas, adherent) | 0.98 | > 500 | 0.895 | > 8 | 0.983 | > 20000 | 0.964 | > 5000 |
| HMV-II (melanoma, adherent) | 0.978 | > 500 | 0.685 | 1.86 | 0.979 | > 20000 | 0.982 | > 5000 |
